Screen size: about 270,000 compounds; about 620 (0.23%) were called active. The inconclusive results got no clear call from the source; some entries with a clear call stand among them for comparison. Calls come from the whole dose curve; as a rule, active = well fitted inhibition curve with a large enough effect in the polarisation, with a control signal flat (not every such curve was filed as active); inconclusive = small, poorly fitted or top-dose-only effect, or effect the other way, or a change in a side signal; inactive = no such curve, though single readings can be large or run the other way; the % refers to the polarisation. Potencies of inconclusive entries are doubtful fits and often do not repeat. “Side channel” marks fits to a control or component signal instead of the main read-out.
Biological target: Menin (Homo sapiens) (UniProt O00255)
Assay: qHTS Assay for Inhibitors Targeting the Menin-MLL Interaction in MLL Related Leukemias: Competition With Texas Red Labeled MLL-derived Mutant Peptide
Conditions: fluorescence polarization; series mostly up to 61.6 µM
Potency is the fitted concentration of half-maximal effect; tags give direction and shape of the fitted curve or compound fluorescence and quenching.

Sequence of UniProt O00255 (O00255 whole entry, looked up): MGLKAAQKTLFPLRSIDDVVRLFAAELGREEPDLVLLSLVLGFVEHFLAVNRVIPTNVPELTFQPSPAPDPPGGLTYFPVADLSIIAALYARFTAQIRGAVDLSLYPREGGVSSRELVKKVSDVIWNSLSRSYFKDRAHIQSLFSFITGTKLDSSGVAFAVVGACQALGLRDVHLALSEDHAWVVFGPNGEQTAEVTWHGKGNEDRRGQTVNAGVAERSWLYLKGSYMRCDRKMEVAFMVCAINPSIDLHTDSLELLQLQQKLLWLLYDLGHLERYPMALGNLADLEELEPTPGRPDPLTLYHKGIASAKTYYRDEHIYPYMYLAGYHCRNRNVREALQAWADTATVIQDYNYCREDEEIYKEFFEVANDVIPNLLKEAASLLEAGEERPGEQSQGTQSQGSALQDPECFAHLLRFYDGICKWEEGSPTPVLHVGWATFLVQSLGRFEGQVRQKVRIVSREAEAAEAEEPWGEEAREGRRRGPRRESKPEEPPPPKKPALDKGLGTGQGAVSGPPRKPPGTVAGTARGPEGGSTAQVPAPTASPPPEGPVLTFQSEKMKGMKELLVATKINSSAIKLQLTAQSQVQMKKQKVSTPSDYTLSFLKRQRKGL

SMILES	Potency
O=[N+]([O-])c1ccc(-c2cnc(SC(c3ccccc3)c3ccccc3)[nH]2)cc1	inconclusive: 3.55 µM [quencher, side channel, full curve]
O=C1c2ccccc2NC(c2ccccc2)N1/N=C/c1ccccc1 (stereo not given)	inconclusive: 28.2 µM [inhibitor, single point]
COc1cccc(/C=N/NC(=S)NCCc2ccccc2)c1OC	inconclusive: 39.8 µM [inhibitor, single point]
COc1ccccc1N(C(=O)c1ccncc1)c1nc(-c2ccc([N+](=O)[O-])cc2)cs1	inconclusive: 14.1 µM [quencher, side channel, partial curve]
CCOC(=O)N1CCN(C(=O)C2CCC(CNS(=O)(=O)c3ccc(Cl)cc3)CC2)CC1 (stereo not given)	inconclusive: 3.16 µM [inhibitor, full curve, poor fit]
COc1ccc(Nc2c([N+](=O)[O-])ccc3c2=NC2(CCCCC2)N=3)cc1	inconclusive: 12.6 µM [quencher, side channel, partial curve]
Cc1ccc(NC(=S)c2ccc(N(C)C)cc2)cc1	inconclusive: 11.2 µM [quencher, side channel, partial curve, poor fit]
Cc1ccccc1C(=O)/C=C1/c2ccccc2CC(C)(C)N1C	inconclusive: 14.1 µM [fluorescent, side channel, partial curve]
COCCCNC(=O)/C(C#N)=C/c1c(N2CCN(c3ccc(OC)cc3)CC2)nc2c(C)cccn2c1=O	active: 28.2 µM
CC(=O)c1cccc(Nc2nc(-c3sc(N)nc3C)cs2)c1	inconclusive: 28.2 µM [quencher, side channel, partial curve]
COc1ccc(CN(CC(=O)NC2CCCCC2)C(=O)CCC(=O)Nc2nccs2)cc1	inconclusive: 39.8 µM [inhibitor, single point]
CCOc1ccc(C(=O)NCC(=O)OCC(=O)c2ccc3c(c2)-c2ccccc2C3)cc1	inconclusive: 3.55 µM [inhibitor, partial curve]
Cc1cc(C)c2nc(NNC(=O)c3cc(-c4cccs4)nc4ccccc34)sc2c1	inconclusive: 10 µM [quencher, side channel, partial curve]
COc1ccc(NC(=O)Cn2cc(C(=O)C3CC3)c3ccccc32)cc1	inconclusive: 39.8 µM [fluorescent, single point]
O=S(=O)(c1cccs1)N1CCN(c2ccc(Cl)cc2)CC1	inconclusive: 17.8 µM [quencher, partial curve]
